# Laboratory results taken from PubChem BioAssay AID504845 (National Center for Advancing Translational Sciences (NCATS), 2011).
# In all, about 390,000 compounds went through this assay and about 150 (0.038%) were called active. This list was built around the results that the source calls inconclusive (neither active nor inactive); the mix of calls is not that of the screen. Calls come from the whole dose curve; as a rule, active = well fitted inhibition curve with a large enough effect; inconclusive = small, poorly fitted or top-dose-only effect; inactive = no such curve, though single readings can be large or run the other way. Potencies beside an inconclusive call are fits to weak or partial responses and may not hold up. Non-standard residues stand in square brackets, D forms with d. Residues, ends and D or L forms follow the SMILES beside them. *: point of attachment. Sta = CC(C)C[C@H](N)[C@@H](O)CC(=O)O; Isovaleryl = CC(C)CC(=O)*
# Target: Regulator of G-protein signaling 4 (Homo sapiens) (UniProt P49798)
# Chain of UniProt P49798 (P49798 whole entry, looked up): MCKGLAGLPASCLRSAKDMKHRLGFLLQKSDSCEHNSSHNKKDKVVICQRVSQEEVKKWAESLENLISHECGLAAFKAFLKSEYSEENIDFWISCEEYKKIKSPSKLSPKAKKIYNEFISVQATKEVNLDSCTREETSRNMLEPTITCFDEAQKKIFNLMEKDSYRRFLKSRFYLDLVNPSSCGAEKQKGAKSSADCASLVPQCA
# Assay: Inhibitors of Regulator of G Protein Signaling (RGS) 4: qHTS; note: nearly all actives have a fitted effect of over 75% in size
# Conditions: Transcreener GDP fluorescence polarization, RGS4-accelerated GTP hydrolysis; series mostly up to 114 µM; activity change, negative = inhibition: at the top concentration
# Summary of the method: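 MLSMR compounds (23 nl, pin-transferred) preincubated 10 min at room temperature with a 500nM (2x) first reagent, then RGS4 at 900nM (2x) plus Transcreener GDP mix added; fluorescence polarization (620/688 nm) read before and after 90 min at 30 °C.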
# % is set by controls: 0 for no effect and ±100 for the full control effect; potency is the fitted concentration of half-maximal effect; tags give direction and shape of the fitted curve.
Compound,Potency,"activity change, negative = inhibition"
O=C(NCCc1ccco1)c1nn(Cc2ccccc2)c(=O)c2ccccc12,"inconclusive: 100 µM [inhibitor, partial curve, poor fit]",–
CCN1C(=O)CS/C1=C(\C#N)S(=O)(=O)c1ccccc1,"inconclusive: 79.4 µM [inhibitor, partial curve, poor fit]",–
N#Cc1cccc(NC(=O)C2CCN(c3nc(-c4ccc(Cl)cc4)no3)CC2)c1,–,inactive: -14.6%
CCN(CC)CCCNC(=O)CNC(=S)N(CCCN1CCOCC1)Cc1cccs1,"inconclusive: 50.1 µM [inhibitor, partial curve, poor fit]",–
O=C(Nc1ccccc1F)c1oc2ccccc2c1NC(=O)c1c(F)cccc1F,"inconclusive: 50.1 µM [inhibitor, partial curve, poor fit]",–
O=c1nc(Nc2cccc(Cl)c2)oc2cc(Cl)oc(=O)c12,–,inactive: -29.9%
COc1ccc(NC(=O)N2CCN(S(=O)(=O)c3ccc4c(ccn4C)c3)CC2)c(OC)c1,"inconclusive: 89.1 µM [inhibitor, single point]",–
NNC(=O)c1cc(O)c(O)c(O)c1,"inconclusive: 79.4 µM [inhibitor, partial curve, poor fit]",–
Cc1cccc(CCN=c2c([N+](=O)[O-])nn(-c3ccccc3)n2O)c1,–,inactive: 14.7%
C=CCN(c1ccccc1OC)S(=O)(=O)c1cccc(C(=O)OCC(=O)c2c[nH]c3ccccc23)c1,–,inactive: -7.26%
CN(Cc1ccccc1)S(=O)(=O)c1ccc(C(=O)Nc2nnc(C3CC3)o2)cc1,"inconclusive: 100 µM [inhibitor, single point]",–
COc1ccccc1-n1c(SCC(=O)NCc2ccc3c(c2)OCO3)nc2cc([N+](=O)[O-])ccc21,"inconclusive: 112 µM [inhibitor, partial curve, poor fit]",–
CCN(CC)c1nc(N)c2c(N)nc3c(c2c1C#N)CC(c1ccccc1)O3 (configuration not stated),–,inactive: -47.3%
COc1cccc(N2CC(O)=C(c3nc4ccccc4s3)C2=N)c1,–,inactive: -7.1%
CC(=O)Nc1ccc(C=NNC(=O)CCCC(=O)NN=Cc2ccc(NC(C)=O)cc2)cc1,–,inactive: -0.117%
O=C(Nc1ccc2oc(-c3cccnc3)nc2c1)c1ccc2c(c1)OCCO2,"inconclusive: 56.2 µM [inhibitor, partial curve, poor fit]",–
COc1ccc(C(=O)NCc2ccccn2)cc1,–,inactive: 25.2%
O=C(Cc1cccs1)N/N=C/C(Br)=C/c1ccccc1,–,inactive: 38.5%
C=CCSc1nnc(COc2ccc(=O)n(-c3ccccc3)n2)n1CC,"inconclusive: 89.1 µM [inhibitor, single point]",–
C=CCNC(=S)Nc1sc2c(c1C(N)=O)CCCC2,"inconclusive: 28.2 µM [inhibitor, full curve, poor fit]",–
Cn1c(=O)n(C)c2cc(/C=N/NC(=O)c3cc4cc(Br)ccc4o3)ccc21,"inconclusive: 10 µM [inhibitor, full curve, poor fit]",–

Compound,Potency,"activity change, negative = inhibition"
O=C(O)c1cccc(N2C(=O)/C(=C/c3ccc([N+](=O)[O-])cc3)C=C2c2ccccc2)c1,"inconclusive: 44.7 µM [inhibitor, partial curve, poor fit]",–
COc1ccc(NC(=O)COC(=O)c2cc(OC)c(OC)cc2NC(=O)c2ccco2)cc1OC,"inconclusive: 89.1 µM [inhibitor, single point]",–
CCOC(=O)COc1ccc2ccccc2c1/C=C/[N+](=O)[O-],"inconclusive: 28.2 µM [inhibitor, full curve, poor fit]",–
CC(C)Cc1nc2oc3c(N4CCN(CCO)CC4)ncnc3c2c2c1CCCC2,"inconclusive: 89.1 µM [inhibitor, single point]",–
CCCCNC(=S)N/N=C1\C(=O)c2cccc3cccc1c23,–,inactive: -3.87%
O=C(CCCCCn1c(=O)c2sccc2n(Cc2ccc(Cl)cc2)c1=O)NCc1ccc2c(c1)OCO2,"inconclusive: 100 µM [inhibitor, partial curve, poor fit]",–
CC(=O)c1cn(Cc2ccccc2)c(=O)n(Cc2ccc(F)cc2)c1=O,"inconclusive: 100 µM [inhibitor, partial curve, poor fit]",–
Cc1nn(Cc2ccc(Cl)c(Cl)c2)c(C)c1NC(=O)c1sc2ccccc2c1Cl,"inconclusive: 70.8 µM [inhibitor, single point]",–
Cc1ccccc1Cn1c(=O)n(CCCC(=O)NCc2ccco2)c(=O)c2sccc21,"inconclusive: 79.4 µM [inhibitor, single point]",–
O=C(c1ccc(Cl)cc1)N1CCc2ccccc21,–,inactive: -11%
COC(=O)C(O)(CC(=O)Nc1ccccc1OC)C(F)(F)F (configuration not stated),–,inactive: 0.133%
Cc1ccc(N2C(=O)c3cccc4cccc(c34)C2=O)cc1,"inconclusive: 50.1 µM [inhibitor, partial curve, poor fit]",–
CCOc1ccccc1NC(=O)CN1C(=O)C(=O)N(Cc2ccco2)C1=O,"inconclusive: 79.4 µM [inhibitor, single point]",–
Nc1nc(NCc2ccc(Cl)c(Cl)c2)c2[nH]cnc2n1,"inconclusive: 100 µM [inhibitor, single point]",–
c1ccc(C(NCc2cccnc2)(c2ccccc2)c2ccccc2)cc1,–,inactive: 16% [at 56.9 µM]
Cc1cccc(OCC(=O)NCc2ccccc2)c1,–,inactive: -4.3%
Nc1ccn(C2OC(COP(=O)(O)O)C(O)C2O)c(=O)n1 (configuration not stated),–,inactive: -6.93%
Cc1ccc(NC(=O)COC(=O)C2CC2(Cl)Cl)cc1C (configuration not stated),"inconclusive: 28.2 µM [inhibitor, full curve, poor fit]",–
Cc1cc(C#N)c(C)c(SCc2[nH]nc3c2C(c2ccccc2)C(C#N)=C(N)O3)n1 (configuration not stated),"inconclusive: 79.4 µM [inhibitor, partial curve, poor fit]",–
CCCCOC(=O)/C(=C\c1ccc([N+](=O)[O-])o1)NC(=O)c1ccccc1,"inconclusive: 100 µM [inhibitor, partial curve, poor fit]",–
S=c1[nH]nc(-c2ccc3ccccc3n2)o1,"inconclusive: 17.8 µM [inhibitor, full curve, poor fit]",–

Compound,Potency,"activity change, negative = inhibition"
Cc1ccc(-c2cc(C(=O)N/N=C/C=C/c3ccccc3)n[nH]2)o1,"inconclusive: 17.8 µM [inhibitor, full curve, poor fit]",–
O=C(CSc1nc2[nH]c(=O)cc(O)c2s1)Nc1nncs1,"inconclusive: 89.1 µM [inhibitor, single point]",–
CCOC(=O)c1cc(NC(=O)Nc2cc(C)ccn2)c(C)nc1C,"inconclusive: 50.1 µM [inhibitor, single point]",–
CCNc1nc(NCC)n2c(SC(C(=O)Nc3cc(C)ccc3OC)c3ccccc3)nnc2n1 (configuration not stated),"inconclusive: 89.1 µM [inhibitor, single point]",–
CC(C1CC2CCC1C2)n1c(-c2cccs2)n[nH]c1=S (configuration not stated),"inconclusive: 79.4 µM [inhibitor, partial curve, poor fit]",–
O=C(CSc1nc(-c2ccc(F)cc2)nc2c1Cc1ccccc1O2)Nc1ccc(C(=O)O)cc1,"inconclusive: 79.4 µM [inhibitor, partial curve, poor fit]",–
NC(=O)CSc1nnc(Cc2ccc3c(c2)OCO3)n1C1CCCCC1,"inconclusive: 89.1 µM [inhibitor, single point]",–
Cc1ccc(N2CCN(C(=S)c3ccc(-c4ccccc4[N+](=O)[O-])o3)CC2)cc1,"inconclusive: 31.6 µM [inhibitor, full curve, poor fit]",–
O=C(NCC(=O)N1CCCCCC1)c1ccc(Cl)cc1,"inconclusive: 79.4 µM [inhibitor, partial curve, poor fit]",–
COc1cccc(N2CCN(C(=O)c3cc4c(=O)n(Cc5ccco5)ccc4nc3C)CC2)c1,"inconclusive: 50.1 µM [inhibitor, partial curve, poor fit]",–
COc1ccc(S(=O)(=O)NC(CC(=O)NCCc2ccc(OC)c(OC)c2)c2ccco2)cc1 (configuration not stated),"inconclusive: 89.1 µM [inhibitor, single point]",–
Cc1ccc(C2C3=C(CCCC3=O)Nc3[nH]c(=S)[nH]c(=O)c32)cc1 (configuration not stated),"inconclusive: 56.2 µM [inhibitor, partial curve, poor fit]",–
Clc1ccccc1N=C1NN=C(c2cccs2)CS1,"inconclusive: 70.8 µM [inhibitor, single point]",–
CC(=O)Nc1ccc(C(=O)/C=C/c2ccco2)cc1,"inconclusive: 17.8 µM [inhibitor, full curve, poor fit]",–
CCOc1ccc(-n2c(N)c(C(=O)NCc3cccnc3)sc2=S)cc1,"inconclusive: 89.1 µM [inhibitor, partial curve, poor fit]",–
CCCOc1ccc(NC(=O)C2CC(=O)N/C(=N/N=C(C)/C=C/c3ccc(N(C)C)cc3)S2)cc1 (configuration not stated),"inconclusive: 50.1 µM [inhibitor, partial curve, poor fit]",–
COc1ccc(-c2csc3nc(-c4ccccc4F)oc(=O)c23)cc1OC,"inconclusive: 28.2 µM [inhibitor, full curve, poor fit]",–
CCCCn1c(SCC(=O)NCc2ccccc2)nc2ccc(N3CCOCC3)cc2c1=O,–,inactive: -21.3%
O=C(C[C@H]1C[C@H](C(=O)N2CCCCC2)[C@@]2(CCc3ccccc3)c3[nH]c4cc(-c5ccco5)ccc4c3CCN2C1=O)NCc1ccco1,"inconclusive: 112 µM [inhibitor, partial curve, poor fit]",–
CC(C)CC(=O)N[C@H](C(=O)N[C@H](C(=O)N[C@@H](CC(C)C)[C@@H](O)CC(=O)N[C@@H](C)C(=O)N[C@@H](CC(C)C)[C@@H](O)CC(=O)O)C(C)C)C(C)C (Isovaleryl-VV[Sta]A[Sta]-OH),"inconclusive: 5.97 µM [inhibitor, partial curve, poor fit]",–
